Laboratory results as given in PubChem BioAssay AID1460 (National Center for Advancing Translational Sciences (NCATS), 2008).
“And” between values parts separate entries of the source, which are not always exact repeats. Equal entries are not always repeated. Out of some 270,000 compounds screened, about 5,800 (2.1%) were called active. The shares of active, inactive and inconclusive entries below differ from those in the screen. Calls follow the shape of the dose curve; as a rule, active = well fitted inhibition curve with a large enough effect; inconclusive = small, poorly fitted or top-dose-only effect; inactive = flat fitted curve, though single readings scatter. Where the call is inconclusive, the potency comes from a doubtful curve fit.

Biological target: Microtubule-associated protein tau (Homo sapiens) (UniProt P10636)
Sequence of UniProt P10636 (P10636 whole entry, looked up): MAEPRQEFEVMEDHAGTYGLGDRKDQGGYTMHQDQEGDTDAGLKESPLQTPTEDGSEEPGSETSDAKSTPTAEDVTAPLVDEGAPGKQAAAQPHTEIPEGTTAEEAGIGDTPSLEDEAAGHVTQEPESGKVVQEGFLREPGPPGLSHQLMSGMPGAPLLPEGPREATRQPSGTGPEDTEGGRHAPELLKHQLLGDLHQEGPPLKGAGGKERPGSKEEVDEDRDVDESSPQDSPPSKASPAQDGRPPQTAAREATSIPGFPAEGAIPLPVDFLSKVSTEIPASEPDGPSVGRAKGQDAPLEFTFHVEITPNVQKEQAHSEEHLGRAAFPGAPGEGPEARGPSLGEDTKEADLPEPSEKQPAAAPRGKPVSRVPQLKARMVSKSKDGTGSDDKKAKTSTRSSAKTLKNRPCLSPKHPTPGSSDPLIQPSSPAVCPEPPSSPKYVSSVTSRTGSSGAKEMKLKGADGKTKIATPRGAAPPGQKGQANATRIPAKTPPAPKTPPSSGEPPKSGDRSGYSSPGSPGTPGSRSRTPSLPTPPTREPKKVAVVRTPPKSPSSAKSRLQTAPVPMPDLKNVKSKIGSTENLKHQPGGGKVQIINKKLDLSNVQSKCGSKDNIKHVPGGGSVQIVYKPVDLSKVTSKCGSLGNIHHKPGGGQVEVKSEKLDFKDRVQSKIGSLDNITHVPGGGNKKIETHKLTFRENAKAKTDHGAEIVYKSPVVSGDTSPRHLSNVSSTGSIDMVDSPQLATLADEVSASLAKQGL
Assay: qHTS for Inhibitors of Tau Fibril Formation, Thioflavin T Binding; also: nearly all actives have a fitted effect of over 55% in size
Conditions: recombinant tau K18 P301L (four-repeat tau fragment), heparin-induced fibrillization, ThT fluorescence; series mostly up to 57.4 µM; activity, negative = inhibition: at the top concentration
Outline: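 K18 P301L tau (15 uM + 0.24 uM Alexa 594-tagged), heparin 20 uM, NaOAc pH 7, 6 h 37 C; ThT 30 uM, 1 h RT, ex 450/em 510 nm.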
% is scaled to controls: 0 for no effect and ±100 for the full control effect; potency is read from the fitted curve at half-maximal effect; tags tell the direction and shape of the fitted curve.

SMILES	Potency	activity, negative = inhibition
CCCN(CCC)C(=O)c1cc([N+](=O)[O-])cc2c1-c1ccc([N+](=O)[O-])cc1C2=C(C#N)C#N	active: 31.6 µM	–
Cc1[nH]n(-c2ccc(F)cc2)c(=O)c1/C=N/c1sc2c(c1C#N)CCCC2	inconclusive: 28.2 µM [inhibitor, partial curve]	–
CCCOCC(O)CCc1n[nH]c(=S)n1-c1ccccc1 (centres undefined)	–	inactive: -5.19%
Cc1cc(SCC(=O)c2ccccc2)n2nc(C)nc2n1	–	inactive: 2.65%
Cn1ncc2c(N3CCN(c4ccc(Cl)c(Cl)c4)CC3)ncnc21	–	inactive: 6.97%
COCCCNC(=O)C1CCCN(S(=O)(=O)c2ccc(C)cc2)C1 (centres undefined)	–	inactive: 3.29%
O=C1CCCC2=C1C(c1ccc(Br)cc1)c1c([nH]c(=S)[nH]c1=O)N2 (centres undefined)	–	inactive: -17.5%
Cc1nn2c(=O)cc(COC(=O)c3ccc(NC(=O)C4CCCCC4)cc3)nc2s1	–	inactive: 1.7%
COCCN=c1scc(-c2ccc3c(c2)NC(=O)CO3)n1/N=C(\C)c1ccc(O)cc1	active: 14.1 µM	–
Cc1cccc(C2c3[nH]c4ccccc4c3CCN2Cc2cccn2-c2ncccn2)c1 (centres undefined)	–	inactive: -12.9%
COc1ccccc1N1CCN(c2csc3ccc(Cl)cc3c2=O)CC1	inconclusive: 10 µM [inhibitor, partial curve]	–
O=S(=O)(c1ccc2c(c1)N(Cc1ccc(Cl)cc1)C1CCCN21)N1CCOCC1 (centres undefined)	–	inactive: 6.79%
Cc1c(N=Cc2c(O)n(Cc3ccco3)c(=O)c3ccccc23)c(=O)n(-c2ccccc2)n1C	inconclusive: 17.8 µM [inhibitor, partial curve] and inconclusive: 10 µM [inhibitor, partial curve]	–
CCn1ccc2cc(S(=O)(=O)N3CCCN(C(=O)NCC(C)C)CC3)ccc21	–	inactive: 2.19%
O=C(Nc1ccc(N2CCN(C(=O)c3ccco3)CC2)c(Cl)c1)c1cc2ccccc2o1	inconclusive: 1.12 µM [inhibitor, partial curve]	–
Cc1ccc(Cn2c(-c3ccccc3)nc3ccccc32)cc1	–	inactive: -17.4%
COC(=O)C1=C(C)N(Cc2ccco2)C(=O)C1	inconclusive: 25.1 µM [inhibitor, single point]	–
COc1ccc(S(=O)(=O)N2CCN(c3ccccc3OC)CC2)cc1-c1noc(C)n1	inconclusive: 12.6 µM [inhibitor, partial curve, poor fit]	–
COc1cc2c(C(=O)NCc3ccc4c(c3)OCO4)cn(CC(C)C)c(=O)c2cc1OC	–	inactive: 4.61%
COc1ccc(-c2[nH]c(-c3cc(OC)c4c(c3)OCO4)nc2-c2ccccc2)cc1	inconclusive: 10 µM [inhibitor, partial curve]	–
CSC1=N/C(=C\c2ccc(C)cc2)C(=O)S1	–	inactive: -13.8%
Cc1oc(C)c2c(=O)cc(-c3ccc4c(c3)OCO4)cc(OC(=O)c3ccccc3Br)c12	inconclusive: 14.1 µM [inhibitor, partial curve]	–
CC(CNC(=O)c1ccc2c(c1)OCO2)c1ccc([N+](=O)[O-])cc1 (centres undefined)	inconclusive: 17.8 µM [inhibitor, partial curve, poor fit]	–

SMILES	Potency	activity, negative = inhibition
Oc1ccc(Nc2ccnc3cc(Cl)ccc23)cc1	inconclusive: 17.8 µM [inhibitor, partial curve]	–
COC(=O)c1ccc(CC(=O)c2nc3ccccc3s2)cc1	inconclusive: 3.98 µM [inhibitor, full curve]	–
O=C(Nc1ccnc(=O)[nH]1)c1sc2ccccc2c1Cl	inconclusive: 14.1 µM [inhibitor, partial curve]	–
CCC(=O)Nc1nonc1-c1nc2ccccc2n1Cc1cccc2ccccc12	inconclusive: 6.31 µM [inhibitor, partial curve]	–
COc1ccc(NC(=O)c2csc(Cc3ccc(Cl)cc3)n2)cc1	inconclusive: 17.8 µM [inhibitor, single point]	–
O=C(CSCC(=O)N1CCCCC1)Nc1nc(-c2cccs2)cs1	inconclusive: 17.8 µM [inhibitor, partial curve]	–
COc1cc(NC2CCCCC2O)c2nc(-c3ccc(Cl)cc3)ccc2c1 (centres undefined)	inconclusive: 10 µM [inhibitor, partial curve]	–
O=C1c2cccnc2C(Nc2ccc(Br)cc2)N1Cc1cccs1 (centres undefined)	–	inactive: 0.956%
Cc1ccc(OC2C(O)COC2/C=C/C#Cc2ccc(C(C)(C)C)cc2)cc1 (centres undefined)	–	inactive: -8.59% [at 11.5 µM] and inactive: -8.4% [at 11.5 µM]
Cc1ccc(C(C)C)c2c1C(c1ccc3c(c1)OCO3)CC(=O)O2 (centres undefined)	inconclusive: 31.6 µM [inhibitor, partial curve, poor fit]	–
COc1ccccc1NCC(=O)NNCC(=O)Nc1ccc(F)c(Cl)c1	inconclusive: 14.1 µM [inhibitor, partial curve]	–
CCOc1cccc(CC(=O)Nc2ccc3nc(N4CCCCC4)cc(C)c3c2)c1OCC	inconclusive: 12.6 µM [inhibitor, partial curve]	–
O=C(O)CNC(=O)CCn1nnc2ccccc2c1=O	–	inactive: 3.45%
COc1ccc(-n2c(C)cc(-c3csc(NC(=O)c4ccc(S(=O)(=O)N(C)C)cc4)n3)c2C)cc1	inconclusive: 10 µM [inhibitor, partial curve]	–
CC(=O)N1CCCc2cc(S(=O)(=O)N3CCC(C(=O)NCc4ccc(N(C)C)cc4)CC3)ccc21	–	inactive: -1.59%
CCCOC(=O)c1ccc(Oc2c(-c3ccc(O)cc3O)n[nH]c2C)cc1	–	inactive: -4.99%
COc1ccc(CNC(=O)CCC(=O)N2CC3CCCN3c3ccccc32)cc1 (centres undefined)	–	inactive: -14.7%
O=C(Nc1nnc(C2CC2)s1)C1Cc2ccccc2CN1S(=O)(=O)c1ccccc1F (centres undefined)	inconclusive: 17.8 µM [inhibitor, partial curve]	–
CCOC(=O)/C=C/C(=O)Nc1ccc(S(=O)(=O)N2CCCCCC2)cc1	inconclusive: 7.08 µM [inhibitor, full curve, poor fit]	–
Cc1[nH]c2ccccc2c1/C=N/Nc1cccc(C(=O)O)c1	active: 12.6 µM	–
COc1cc2c(cc1O)[C@H](Cc1ccc(Oc3cc(C[C@@H]4NCCc5cc(OC)c(O)cc54)ccc3O)cc1)NCC2	inconclusive: 20 µM [inhibitor, partial curve]	–
CCOC(=O)NNc1ccc2nonc2c1[N+](=O)[O-]	active: 12.6 µM	–
Cc1cccc(N2CCN(C(=O)CSCc3ccc(F)cc3)CC2)c1C	inconclusive: 11.2 µM [inhibitor, partial curve]	–

SMILES	Potency	activity, negative = inhibition
COc1ccc(N2C(S)=C(C#N)C(=O)NC2c2ccco2)cc1 (centres undefined)	inconclusive: 31.6 µM [inhibitor, single point]	–
COc1ccc(C=Nc2ccc3[nH]ncc3c2)c(O)c1	inconclusive: 25.1 µM [inhibitor, single point]	–
Oc1ccc(N2CCN(C(c3ccncc3)c3nnnn3C3CCCC3)CC2)cc1 (centres undefined)	inconclusive: 39.8 µM [inhibitor, partial curve, poor fit]	–
CN(CCC1CCCCO1)C(=O)CCc1nnc(C2CCCCC2)o1 (centres undefined)	–	inactive: 10.7%
Cc1ccc(CNC(=O)Cc2coc3cc(C)cc(C)c23)cc1	inconclusive: 22.4 µM [inhibitor, single point]	–
COc1ccc(-c2cn3nc(N4CCC(C(=O)Nc5cccc(Cl)c5)CC4)sc3n2)cc1	inconclusive: 0.355 µM [inhibitor, full curve, poor fit]	–
COc1c(CO)cc(CO)cc(CO)c1=O	inconclusive: 17.8 µM [inhibitor, partial curve, poor fit]	–
COC(=O)c1cc(NC(=O)c2ccc([N+](=O)[O-])cc2)c(=O)oc1C	inconclusive: 12.6 µM [inhibitor, partial curve]	–
CCOc1ccc2nc(NC(=O)CS(=O)(=O)c3ccc(Cl)cc3)sc2c1	inconclusive: 7.94 µM [inhibitor, full curve, poor fit]	–
Cc1ccc(C2c3c(oc4ccccc4c3=O)C(=O)N2c2ccc(C)cn2)cc1 (centres undefined)	–	inactive: -1.73%
COc1ccc(CC(=O)OCc2nnc(C3COc4ccccc4O3)o2)cc1OC (centres undefined)	inconclusive: 31.6 µM [inhibitor, partial curve]	–
Cc1cc(Br)ccc1NC(=O)CCS(=O)(=O)c1cccc2nsnc12	–	inactive: -8.75%
c1ccc(CN2CCN(c3nc4ccccc4c4ccccc34)CC2)cc1	inconclusive: 22.4 µM [inhibitor, partial curve]	–
COC(=O)c1ccc(-n2nnc(-c3nc(-c4ccc5c(c4)OCO5)no3)c2C)cc1	inconclusive: 0.562 µM [inhibitor, partial curve]	–
CCOC(=O)c1ccc(NC(=O)C2CCCN(c3ccc(Sc4ccc(C)cc4)nn3)C2)cc1 (centres undefined)	–	inactive: -6.75%
Cc1ccccc1-c1noc(C(C)NC(=O)c2ccco2)n1 (centres undefined)	–	inactive: -1.53%
CCOP(=O)(OCC)c1nc(/C=C/c2ccccc2)oc1NCc1ccc(OC)cc1	inconclusive: 39.8 µM [inhibitor, partial curve, poor fit]	–
CC(=O)c1ccc(OC(=O)C2CC(=O)N(c3cccc(C)c3)C2)cc1 (centres undefined)	inconclusive: 14.1 µM [inhibitor, partial curve]	–
Cc1ccc(-c2nc3cnccn3c2Nc2ccc3c(c2)OCO3)cc1	inconclusive: 15.8 µM [inhibitor, single point]	–
CCc1c(C)[nH]c(C(=O)OCc2ccccc2)c1C	inconclusive: 7.08 µM [inhibitor, partial curve]	–
Cc1nn(C(C)C(=O)N2CCN(c3ccc(Cl)cc3)CC2)c(=O)c2cc3occc3n12 (centres undefined)	–	inactive: -4.76%
CCOC(=O)N1CCN(Cc2nc3c(c(=O)n(C)c(=O)n3C)n2CCCc2ccccc2)CC1	–	inactive: -9.98%
C=CCn1c(SCc2csc(C)n2)nc2scc(-c3ccc(C)o3)c2c1=O	inconclusive: 8.91 µM [inhibitor, partial curve, poor fit]	–
